# Data: the supplement of paper PMC8728848
# The list shows a part of the results.
# B1: CBM32-1 (Clostridium perfringens) (protein)
# chain: MGSSHHHHHHSSGLVPRGSHMASGVEITEGVTVTAKGNTEGNTADLAIDGDLSTYWESSNDYKWIEVDLGGIYELSKIEIFNKDEAVYKYNIYASEDGENFNKIAYKNNDNVSDSNGNVHTIDNVRAGKIRIDVVQNSNSDRVNIAEINVFG
# Experiments:
# Experiment in all cases: glycan array binding signal (z-score within array); higher = stronger binding
# Conditions in all cases: glycan notation: IUPAC condensed, linker removed
# [1] = target: GlcNAc(b1-6)Gal(b1-4)GlcNAc
# Method in brief: (§1)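 Glycan array data were curated from 3228 arrays in the Consortium for Functional Glycomics database and kept only where the protein sequence was available. Glycan names were converted to IUPAC-condensed notation, and columns mapping to the same glycan were averaged. The binding signal is a within-array Z-score, averaged across arrays of the same protein sequence at different concentrations or buffers and across linkers. Negative Z-scores can be read as non-binding.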
# GlcNAc(b1-6)GalNAc = target: GlcNAc(b1-6)GalNAc
# Method in brief: as §1
# GlcNAc3Prop(b1-4)GlcNAc = target: GlcNAc3Prop(b1-4)GlcNAc
# Method in brief: as §1
# Kdn(a2-3)Gal(b1-3)GlcNAc = target: Kdn(a2-3)Gal(b1-3)GlcNAc
# Method in brief: as §1
# Kdn(a2-3)Gal(b1-4)GlcNAc = target: Kdn(a2-3)Gal(b1-4)GlcNAc
# Method in brief: as §1
# [2] = target: Man(a1-2)Man(a1-2)Man(a1-3)Man
# Method in brief: as §1
# [3] = target: Man(a1-2)Man(a1-2)Man(a1-6)[Man(a1-3)]Man
# Method in brief: as §1
# Man(a1-2)Man(a1-3)Man = target: Man(a1-2)Man(a1-3)Man
# Method in brief: as §1
# [4] = target: Man(a1-2)Man(a1-3)[Man(a1-2)Man(a1-6)]Man
# Method in brief: as §1
# [5] = target: Man(a1-2)Man(a1-3)[Man(a1-2)Man(a1-6)]Man(a1-6)[Man(a1-2)Man(a1-2)Man(a1-3)]Man
# Method in brief: as §1
# [6] = target: Man(a1-2)Man(a1-3)[Man(a1-2)Man(a1-6)]Man(a1-6)[Man(a1-2)Man(a1-2)Man(a1-3)]Man(b1-4)GlcNAc(b1-4)GlcNAc
# Method in brief: as §1
# [7] = target: Man(a1-2)Man(a1-3)[Man(a1-6)]Man(a1-6)[Man(a1-2)Man(a1-3)]Man(b1-4)GlcNAc(b1-4)GlcNAc
# Method in brief: as §1
# [8] = target: Man(a1-2)Man(a1-6)[Man(a1-3)]Man(a1-6)[Man(a1-2)Man(a1-2)Man(a1-3)]Man
# Method in brief: as §1
# [9] = target: Man(a1-2)Man(a1-6)[Man(a1-3)]Man(a1-6)[Man(a1-2)Man(a1-2)Man(a1-3)]Man(b1-4)GlcNAc(b1-4)GlcNAc
# Method in brief: as §1
# Man(a1-3)[Man(a1-6)]Man = target: Man(a1-3)[Man(a1-6)]Man
# Method in brief: as §1
# [10] = target: Man(a1-3)[Man(a1-6)]Man(a1-6)[Man(a1-2)Man(a1-3)]Man(b1-4)GlcNAc(b1-4)GlcNAc
# Method in brief: as §1
# [11] = target: Man(a1-3)[Man(a1-6)]Man(a1-6)[Man(a1-3)]Man
# Method in brief: as §1
# [12] = target: Man(a1-3)[Man(a1-6)]Man(a1-6)[Man(a1-3)]Man(b1-4)GlcNAc(b1-4)GlcNAc
# Method in brief: as §1
# [13] = target: Man(a1-3)[Man(a1-6)]Man(b1-4)GlcNAc(b1-4)GlcNAc
# Method in brief: as §1
# Man(a1-6)Man = target: Man(a1-6)Man
# Method in brief: as §1
# Man(b1-4)GlcNAc = target: Man(b1-4)GlcNAc
# Method in brief: as §1
# Neu5Ac(a2-3)Gal = target: Neu5Ac(a2-3)Gal
# Method in brief: as §1
# [14] = target: Neu5Ac(a2-3)Gal(b1-3)GalNAc
# Method in brief: as §1
# [15] = target: Neu5Ac(a2-3)Gal(b1-3)GalNAc(b1-3)Gal(a1-4)Gal(b1-4)Glc
# Method in brief: as §1
# [16] = target: Neu5Ac(a2-3)Gal(b1-3)GalNAc(b1-3)Gal(b1-4)GlcNAc
# Method in brief: as §1
# [17] = target: Neu5Ac(a2-3)Gal(b1-3)GalNAc(b1-4)[Neu5Ac(a2-3)]Gal(b1-4)Glc
# Method in brief: as §1
# [18] = target: Neu5Ac(a2-3)Gal(b1-3)GalNAc6S
# Method in brief: as §1
# [19] = target: Neu5Ac(a2-3)Gal(b1-3)GlcNAc
# Method in brief: as §1
# [20] = target: Neu5Ac(a2-3)Gal(b1-3)GlcNAc(b1-3)Gal(b1-3)GlcNAc
# Method in brief: as §1
# [21] = target: Neu5Ac(a2-3)Gal(b1-3)GlcNAc6S
# Method in brief: as §1
# [22] = target: Neu5Ac(a2-3)Gal(b1-3)[Fuc(a1-4)]GlcNAc
# Method in brief: as §1
# [23] = target: Neu5Ac(a2-3)Gal(b1-3)[Fuc(a1-4)]GlcNAc(b1-3)Gal(b1-4)[Fuc(a1-3)]GlcNAc
# Method in brief: as §1
# [24] = target: Neu5Ac(a2-3)Gal(b1-3)[Neu5Ac(a2-3)Gal(b1-4)]GlcNAc
# Method in brief: as §1
# [25] = target: Neu5Ac(a2-3)Gal(b1-3)[Neu5Ac(a2-6)]GalNAc
# Method in brief: as §1
# Neu5Ac(a2-3)Gal(b1-4)Glc = target: Neu5Ac(a2-3)Gal(b1-4)Glc
# Method in brief: as §1
# [26] = target: Neu5Ac(a2-3)Gal(b1-4)GlcNAc
# Method in brief: as §1
# [27] = target: Neu5Ac(a2-3)Gal(b1-4)GlcNAc(b1-2)Man(a1-3)[GlcNAc(b1-2)Man(b1-4)GlcNAc(b1-2)Man(a1-6)]Man(b1-4)GlcNAc(b1-4)GlcNAc
# Method in brief: as §1
# [28] = target: Neu5Ac(a2-3)Gal(b1-4)GlcNAc(b1-2)Man(a1-3)[Neu5Ac(a2-6)Gal(b1-4)GlcNAc(b1-2)Man(a1-6)]Man(b1-4)GlcNAc(b1-4)GlcNAc
# Method in brief: as §1
# [29] = target: Neu5Ac(a2-3)Gal(b1-4)GlcNAc(b1-3)Gal(b1-3)GlcNAc
# Method in brief: as §1
# [30] = target: Neu5Ac(a2-3)Gal(b1-4)GlcNAc(b1-3)Gal(b1-4)GlcNAc
# Method in brief: as §1
# [31] = target: Neu5Ac(a2-3)Gal(b1-4)GlcNAc(b1-3)Gal(b1-4)GlcNAc(b1-3)Gal(b1-4)GlcNAc
# Method in brief: as §1
# [32] = target: Neu5Ac(a2-3)Gal(b1-4)GlcNAc(b1-3)Gal(b1-4)[Fuc(a1-3)]GlcNAc
# Method in brief: as §1
# [33] = target: Neu5Ac(a2-3)Gal(b1-4)GlcNAc(b1-6)[Gal(b1-3)]GalNAc
# Method in brief: as §1
# [34] = target: Neu5Ac(a2-3)Gal(b1-4)GlcNAc(b1-6)[Neu5Ac(a2-3)Gal(b1-3)]GalNAc
# Method in brief: as §1
# [35] = target: Neu5Ac(a2-3)Gal(b1-4)GlcNAc6S
# Method in brief: as §1
binder,measurement,setting,value
B1,glycan array binding signal (z-score),[1],-0.445
same,glycan array binding signal (z-score),GlcNAc(b1-6)GalNAc,-0.322
same,glycan array binding signal (z-score),GlcNAc3Prop(b1-4)GlcNAc,-0.409
same,glycan array binding signal (z-score),Kdn(a2-3)Gal(b1-3)GlcNAc,-0.63
same,glycan array binding signal (z-score),Kdn(a2-3)Gal(b1-4)GlcNAc,-0.439
same,glycan array binding signal (z-score),[2],0.693
same,glycan array binding signal (z-score),[3],-0.361
same,glycan array binding signal (z-score),Man(a1-2)Man(a1-3)Man,-0.416
same,glycan array binding signal (z-score),[4],-0.411
same,glycan array binding signal (z-score),[5],-0.655
same,glycan array binding signal (z-score),[6],1.7
same,glycan array binding signal (z-score),[7],-0.202
same,glycan array binding signal (z-score),[8],-0.78
same,glycan array binding signal (z-score),[9],-0.317
same,glycan array binding signal (z-score),Man(a1-3)[Man(a1-6)]Man,-0.592
same,glycan array binding signal (z-score),[10],-0.228
same,glycan array binding signal (z-score),[11],-0.914
same,glycan array binding signal (z-score),[12],-0.082
same,glycan array binding signal (z-score),[13],-0.139
same,glycan array binding signal (z-score),Man(a1-6)Man,-0.137
same,glycan array binding signal (z-score),Man(b1-4)GlcNAc,-0.645
same,glycan array binding signal (z-score),Neu5Ac(a2-3)Gal,-0.43
same,glycan array binding signal (z-score),[14],-0.229
same,glycan array binding signal (z-score),[15],-0.525
same,glycan array binding signal (z-score),[16],-0.223
same,glycan array binding signal (z-score),[17],-0.534
same,glycan array binding signal (z-score),[18],0.321
same,glycan array binding signal (z-score),[19],-0.64
same,glycan array binding signal (z-score),[20],-0.722
same,glycan array binding signal (z-score),[21],1.12
same,glycan array binding signal (z-score),[22],-0.521
same,glycan array binding signal (z-score),[23],-0.197
same,glycan array binding signal (z-score),[24],0.127
same,glycan array binding signal (z-score),[25],-0.151
same,glycan array binding signal (z-score),Neu5Ac(a2-3)Gal(b1-4)Glc,0.32
same,glycan array binding signal (z-score),[26],-0.503
same,glycan array binding signal (z-score),[27],3.77
same,glycan array binding signal (z-score),[28],-0.626
same,glycan array binding signal (z-score),[29],-0.372
same,glycan array binding signal (z-score),[30],-0.885
same,glycan array binding signal (z-score),[31],-0.482
same,glycan array binding signal (z-score),[32],-0.228
same,glycan array binding signal (z-score),[33],-0.193
same,glycan array binding signal (z-score),[34],0.143
same,glycan array binding signal (z-score),[35],-0.189
